# Data taken from the RNAGym collection of RNA variant scans (doi:10.7554/elife.90254).
# The source gives no read counts; variants with many changes may rest on few reads.
# B1: LINE1-mini (parent)
# chain: GGCAGAGCUCAACACAGCGUGGCAAAGUGGCUGUGGCUAGACUGCC
# Variants of: B1
# Test: self-cleavage, relative activity (ratio to wild type); higher = more cleavage; in vitro, sequencing; the parent is a self-cleaving ribozyme
row,Variant,self-cleavage
1,G5A G7A C13G C42G,0.16
2,G5A C8U G17U A24U A26G,0.39
3,G5A C13G U20A G30A,0.04
4,G5A C8A A25U G30C C31G U43C,0.32
5,G5A G7A C15A G33U,0.22
6,G5A C10U A25U,0.12
7,G5A G7C A39C C46G,0.04
8,G5A C13U G40A,0.12
9,G5A C8G C31U,0.07
10,G5A C8A A24U,0.09
11,G5A C15A U20A U32C,0.01
12,G5A G7A A12G A16U G29C,0.05
13,G5A C10G U28C C46G,0.03
14,G5A C13U G19A,0.19
15,G5A C15U G44A,0.06
16,G5A C13A G21A,0.03
17,G5A C13G G27A,0.04
18,G5A C10A A11G C37U,0.02
19,G5A C10U C31G,0.05
20,G5A C10U C42A,0.07
21,G5A C10G C15A G22U U32G G44U C45G,0.01
22,G5A C10U A12C G17C G19C U20G,0.01
23,G5A C18G G44A,0.04
24,G5A C10G U20G U28A,0.02

row,Variant,self-cleavage
1,G5A C13U C15G A16U A25G A39U A41U,0.03
2,G5A G7C A12G C13G C18A G22U,0.09
3,G5A C18U G44U,0.24
4,G5A C18U G27U,0
5,G5A G7C C10A U28G,0.03
6,G5A C23G G35C C46U,0.07
7,G5A C13U C18U A25G G30A,0.05
8,G5A C10U G21A C23G G36A,0.03
9,G5A C8G U28C,0.39
10,G5A G7A C15G,0.24
11,G5A C18G U20G,0.21
12,G5A C18A G19U C46A,0.06
13,G5A C8G A12U G35C,0.01
14,G5A C13G G21A C31U,0.06
15,G5A C15A G29A G40A,0.01
16,G5A C42G C45U C46U,0.05
17,G5A C18A A24G G29C G44C,0.01
18,G5A C15U A16U C18G G21C G27C,0.08
19,G5A C10A G22U G40A,0
20,G5A C15A G44U,0.02
21,G5A C18A C37U C46A,0.17
22,G5A C8A A12G G17C,0.41
23,G5A C31G G40C,0.03
24,G5A C10A G30U C31U U32A C37G U43A,0.01

row,Variant,self-cleavage
1,G5A C8A C23U G29A C37U,0.22
2,G5A C8G A25C G27U C31G,0.07
3,G5A C13U C37G,0.05
4,G5A C23A A26G,0.03
5,G5A C23U C46G,0.06
6,G5A C10G C23A U32A C42A,0.01
7,G5A C18A G30U G35A U43G,0.02
8,G5A C10A C23U G44A,0.02
9,G5A C8A A16U G17U U32A C42U,0.32
10,G5A C10A C13U U38C,0.02
11,G5A A41U C45A,0.08
12,G5A C10A G22A U34A A39U,0.02
13,G5A C37U A39C G44U,0.17
14,G5A C8U A11U G33U G35U,0
15,G5A C10G G17A G35U A39U,0.01
16,G5A C10A G22A,0.04
17,G5A C13G G22A A25U G44C C45A,0.08
18,G5A C15U G17A A25C G35U,0.07
19,G5A C23A G40U,0.08
20,G5A C10G G27U U28A A39G,0.01
21,G5A C15U G27A U28A U38G C42G,0.02
22,G5A C13A G29C G33U C37U,0.02
23,G5A C10U G17U,0.06
24,G5A C15A G36C U38A,0.06

row,Variant,self-cleavage
1,G5A C10A A12C G27U G29U A41U,0
2,G5A G7A G36C G44A,0.25
3,G5A A41U C42U G44C,0.02
4,G5A C10A C42G,0.05
5,G5A C10A G21C,0.04
6,G5A C10U A11G G36U C45A,0
7,G5A C10G A11C C45U,0.03
8,G5A G7A C18G,0.15
9,G5A C10G C13A A25U,0.04
10,G5A C23A A39U,0.04
11,G5A C15A A26C C37G,0.02
12,G5A C8G A11C,0.03
13,G5A C18A U20G C23U C31A,0.02
14,G5A C13A C15G C37A C45A,0.02
15,G5A C10A G21U A24U G27U,0.02
16,G5A C10G G36A U43A,0.01
17,G5A C37A A41C,0.02
18,G5A C10G A12G A16U,0.01
19,G5A C10G G17A C18U G27U G29A C42U,0.04
20,G5A C10A A14U G19A,0.04
21,G5A C8U A25U A26C G35C,0.03
22,G5A C10A U20G,0.02
23,G5A C10U G19U U32G C37U,0.01
24,G5A C10U C15A U32C G36U,0.01

row,Variant,self-cleavage
1,G5A C8U A39G,0.03
2,G5A C13A G27U,0.13
3,G5A G7C A12U U20G,0.04
4,G5A C18A U38C U43A,0.03
5,G5A C8A A12U U38A C46G,0.08
6,G5A C37G A39G,0.03
7,G5A C8U C31A C46G,0.82
8,G5A G7C A41U,0.14
9,G5A C8U U32A C37U C42A G44A,0.24
10,G5A G7C C13G A24C U34G,0.04
11,G5A C18U G35A C42G,0.06
12,G5A C18U G35C U38C,0.04
13,G5A C23A A39C U43C G44U,0.05
14,G5A G7A C15U G29U G30U,0.19
15,G5A C13U U28A,0.1
16,G5A C10A A14G A24U,0.01
17,G5A C10U C18G G27A G36A G40U C42U G44U,0.07
18,G5A C15G G29U U34A,0.03
19,G5A C8U A16G C45A,0.15
20,G5A C18U G22U A41C C42A,0.07
21,G5A C15A G40U,0.03
22,G5A C15A G40A,0.04
23,G5A C8A A12C A14C U34G,0.02
24,G5A C8G C10A C18U,0.04

row,Variant,self-cleavage
1,G5A C23G U28A,0.19
2,G5A C10U G29C G33A,0.03
3,G5A C13U G30C,0.04
4,G5A C13U C18A,0.12
5,G5A G7A G17U G19C G33U U38C,0.02
6,G5A C10A A39G A41G,0.01
7,G5A C13G C31A G33U,0.02
8,G5A C8A A25C U34A,0.49
9,G5A C8U U9C C10A A24U G35U U43G,0.02
10,G5A C10A U32C C37U G40A,0.03
11,G5A C31G U34G C37G,0
12,G5A C8U A24C C31U U32G,0.02
13,G5A C8A G22A G36A C45A,0.47
14,G5A C13A C15G G36U C37G,0.33
15,G5A C8U A14U A24U C31A,0.17
16,G5A C37A G40U,0.12
17,G5A C13U G17A G27A,0.06
18,G5A C8U C15G C45A,0.06
19,G5A C15A U32C C37G C46A,0
20,G5A C13U A14U G21U,0.11
21,G5A C13U G29U C45A,0.12
22,G5A C10A A39U A41U,0.03
23,G5A C8G C18U A24C A41U,0.02
24,G5A C8U G17A G40A,0.29

row,Variant,self-cleavage
1,G5A C45U C46G,0.12
2,G5A C31U G40C,0.16
3,G5A C18U G33U,0.05
4,G5A C10A G17C G19U C42A,0.03
5,G5A C13A G19U G27A G40C,0.04
6,G5A C8U G22U G30A,1.07
7,G5A C13G C37A,0.08
8,G5A G7A U9A G29U U38A,0.23
9,G5A G7A C8A A16C G17A C23G C31U G33A G40A,0.19
10,G5A C13A C15A A26C,0.05
11,G5A C10A G19C,0.01
12,G5A C15A U38C,0.06
13,G5A C10U A24C C31G C37G,0.04
14,G5A C10A G17U G27A,0.06
15,G5A C15A G21U G29C G30A,0.03
16,G5A C23U A26C,0.05
17,G5A C8A C10A C18U,0.03
18,G5A C18U C46U,0.13
19,G5A C10A U32C C37A G44U,0.04
20,G5A C23U G30U,0.04
21,G5A C8G A11U A24C,0.01
22,G5A C15G G17U C46U,0.07
23,G5A C18U G36U,0.12
